Measured values as given in the RNAGym collection of RNA variant scans (doi:10.7554/elife.90254).
Read counts are not given, so values of variants with three or more changes are uncertain.

B1: LINE1-mini (parent)
chain: GGCAGAGCUCAACACAGCGUGGCAAAGUGGCUGUGGCUAGACUGCC

Variants of: B1
Experiment: self-cleavage, relative activity (ratio to wild type); higher = more cleavage; in vitro, sequencing; the parent is a self-cleaving ribozyme

Row | Variant | self-cleavage
1 | A6U C10G C42U | 0
2 | G7A U9G G29U | 0.06
3 | A6U A11U C18G G44C | 0.02
4 | G7A C15U G17U C37U | 0.6
5 | A6G G40U U43C | 0.02
6 | G7A U9G C15U G17A | 0.02
7 | G7A C37G A39C | 0.05
8 | G7A C8U C31U U32G G35C | 0.07
9 | A6U U9G G29C G30A | 0.11
10 | A6U C15A A25G | 0.02
11 | G7A U9C G44A | 0.01
12 | A6G U9C C10U A12C C13A G17U A26U | 0.01
13 | G7A A25C U43A | 0.08
14 | G7A C8A G27A U28G G33U | 0.07
15 | G7A A25U C31U | 0.59
16 | G7A C13G A25U | 0.23
17 | G7A C13A A14U U43A C45U | 0.19
18 | A6U A11G U38G | 0.01
19 | A6U G17A A26C G30A U38A C46G | 0.14
20 | G7A G29A G40U | 0.86
21 | G7A G17A G22A U32A G40U C42A | 0.05
22 | G7A A14C A41G | 0.13
23 | G7A C31U G33U | 0.14
24 | A6G U20G C37A | 0.02

Row | Variant | self-cleavage
25 | G7A C15U A16C A25U | 0.11
26 | A6G U20C C42U | 0.02
27 | A6U G27C U32A U43A C45A | 0.05
28 | G7A C31G G33A U34A | 0.06
29 | G7A U9C C18A C37U | 0.02
30 | G7A G29A U34A G35U | 0.2
31 | A6U A14U C15U A16C | 0.06
32 | A6U A11G C46U | 0.03
33 | G7A C13A C31U C45A | 0.02
34 | A6U C8G U9G A14G A26C U34C U43A G44U | 0
35 | G7A G21C U34G | 0.04
36 | A6U C10G C13U G27U C46U | 0.01
37 | A6U G22C G27C G44U C46U | 0.08
38 | G7A C18A G27A | 0.07
39 | G7A G21U U34G C46G | 0.05
40 | G7A G30A G33U | 0.04
41 | A6U G17A U28A U43G | 0.44
42 | G7A A16U G27A C46U | 0.08
43 | G7A C10A G21U A26G | 0.01
44 | G7A C10U C37U | 0.02
45 | G7A A26G G29U G30A A41U | 0.03
46 | G7A U32C U43C | 0.12
47 | G7A A14G A16C | 0.12
48 | A6U A24G A26U | 0.2

Row | Variant | self-cleavage
49 | A6U G30C U32G | 0.07
50 | G7A U20A C23G U34G | 0.04
51 | G7A C15U U34G | 0.21
52 | G7A A16U U32C G36C A41C | 0.05
53 | A6U A11U C15G G22C A41U U43G | 0.01
54 | A6U C31U G44U C45A | 0.32
55 | A6U A39C U43C | 0.12
56 | G7A A16U A39C | 0.09
57 | A6U A25C U32A G35A G36A A41U | 0.06
58 | G7A C13U C15G A26U G44U | 0.3
59 | G7A C10U G35A | 0.02
60 | G7A G17U G21U C31G | 0.06
61 | A6U C10G C13U G17U | 0.02
62 | A6G U9C U20G A41G | 0
63 | A6U C37A C45A | 0.01
64 | G7A C8U U28C | 0.14
65 | G7A G29U U32A G33C | 0.14
66 | A6U A14C C18G | 0.11
67 | A6U G17U U20C C37U | 0.04
68 | A6U U9C A26C | 0.03
69 | G7A C10A G19U G27A C37A | 0.02
70 | A6U C10U A14U C15G G22C U43A | 0
71 | G7A C15G C23U U34C | 0.15
72 | A6U U9A C37U | 0.05

Row | Variant | self-cleavage
73 | G7A C10G C13A G44U | 0.02
74 | G7A C8A A14U C15A C42G G44U | 0.36
75 | A6U G17A G36U | 0.09
76 | G7A G19A A25C G44U | 0.08
77 | A6U A24G G36A | 0.25
78 | G7A U28A G35U | 0.36
79 | A6U A14U A24G G44U | 0.03
80 | G7A U9C C13G G30C U32C | 0.02
81 | G7A C15A A24U A39C | 0.37
82 | A6G U9A C10A G17C U20G G27U | 0.01
83 | G7A A24U U38A | 0.07
84 | A6G U20A G33A U38A | 0.03
85 | G7A C10U A11G | 0.02
86 | A6G U32A U34G | 0.02
87 | A6U G7U A16U A24U U34G | 0.07
88 | G7A U20C G30U C46A | 0.05
89 | A6U A24C G35C G40U C45G | 0.01
90 | A6U A25U G40C C45U | 0.08
91 | A6U C10G A14C A39U | 0.05
92 | G7A C10G C13G G17A | 0.02
93 | A6U G17C A25U A41C C45U | 0.1
94 | A6U A16G G19U G22U U32A G33A | 0.01
95 | A6U A12C C15G C18A U32A | 0.01
96 | G7A A14U C23U | 0.02

Row | Variant | self-cleavage
97 | A6U A26U G40C | 0.22
98 | A6U A11U G22C A24G C42G | 0.01
99 | G7A C13U C15A U20A G36A | 0.03
100 | A6U C13U A25U U38C | 0.1
101 | A6U A12U A25G U32A G40U | 0.02
102 | G7A U9C C10U A24C | 0.03
103 | A6U C15U G27A U43A | 0.13
104 | A6U C13U G35C G40A | 0.11
105 | G7A C15U G36U C46A | 0.09
106 | A6U G30U A41U C46U | 0.11
107 | A6G U9C U43A | 0.01
108 | G7A U20C C31U | 0.02
109 | G7A U20G G27U A41G | 0.07
110 | G7A C8A G17A G22A G33U | 0.24
111 | G7A G17A C42G | 0.25
112 | G7A U20A U38C | 0.05
113 | G7A A12C C13A C31A | 0.07
114 | A6U G17C U20A U28A C37A | 0.06
115 | G7A C37U U38G | 0.04
116 | G7A G36U A39U | 0.28
117 | G7A U28C C37G U38G | 0
118 | G7A C10A G30A G35C | 0.02
119 | G7A C18U C37A | 0.6
120 | G7A G21U C23G U28G G29U | 0.04

Row | Variant | self-cleavage
121 | G7A G27A U28G G33A | 0.07
122 | G7A A11C C18U C31G U34A | 0.01
123 | G7A G35A U43A | 0.07
124 | A6U G7U C18U A41G | 0.21
125 | A6U G7U A11C C37G U38A A41C C42G G44U | 0
126 | G7A U34G G44A | 0.02
127 | A6U G19C U34A A41U | 0.08
128 | A6U G35U C42U | 0.38
129 | A6U U20G G40U | 0.2
130 | A6U A24U U28C G35U | 0.09
131 | G7A A24G C31G G33U | 0.12
132 | A6U G17U G21A U34A G35U G40C | 0.02
133 | G7A U32G G33C G35A | 0.12
134 | A6U C18U U34C | 0.02
135 | A6U A25U A39U C45A C46U | 0.64
136 | A6U G27A U32G C45A | 0.11
137 | G7A G17U A24U G27A G35U | 0.14
138 | A6G U9C C10U G29U G30U | 0.02
139 | G7A U38C C42G G44U | 0.04
140 | G7A U28C G29C G30U U34G | 0.22
141 | G7A A24C C46A | 0.07
142 | G7A A14U U20G | 0.42
143 | A6U A12U G30A G40U | 0.27
144 | G7A C8A C15G G40U | 0.13

Row | Variant | self-cleavage
145 | G7A C15U G22C G30U A39G | 0.1
146 | A6U A16G G17C C31G U38C | 0.08
147 | G7A A16G C31U A39G | 0.02
148 | A6G U32A A41U | 0.05
149 | A6U C31G G44U | 0.02
150 | A6U U9C C13G | 0.12
151 | G7A U20G G29U | 0.07
152 | A6U A11G G22A C37U C46A | 0.01
153 | G7A C8A G29U | 0.32
154 | G7A C8A U34C G35C G36U | 0.07
155 | A6U A12C A14U G17A C23U | 0.03
156 | G7A A12C G17C G22U A24C U43C | 0.02
157 | A6U C10A G21C | 0.12
158 | G7A C18A G22C | 0.07
159 | G7A G44A C45G | 0.17
160 | G7A A14C C23A | 0.15
161 | A6U C31G G36C | 0.05
162 | A6U A12U G27C U28A | 0.03
163 | A6U C8A A12G G19A | 0.05
164 | A6U C8A U20A G21U | 0.06
165 | G7A A11U C31G G40U C45A | 0.03
166 | G7A A11C A26U | 0.02
167 | A6U G7U C18G C31G C46A | 0.1
